Experimental data published in PubChem BioAssay AID1345082 (National Center for Advancing Translational Sciences (NCATS), 2018).
In all, about 94,000 compounds went through this assay and about 4,000 (4.3%) were called active. The inconclusive results got no clear call from the source; some entries with a clear call stand among them for comparison. The call rests on the fitted dose curve; in most records, active means well fitted inhibition curve with a large enough effect; inconclusive means small, poorly fitted or top-dose-only effect; inactive means no such curve, though single readings can be large or run the other way. Potencies of inconclusive entries are doubtful fits and often do not repeat.

test: Cytotoxic Profiling in NIH 3T3 Cell Line of Diverse Libraries Using Quantitative High-Throughput Screening; settings: NIH 3T3 viability, CellTiter-Glo ATP luminescence, 48-72 h; series mostly up to 96.7 µM; further: nearly all actives have a fitted effect of over 55% in size
How it was run: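 Cytotoxicity is measured as loss of cellular ATP: NIH 3T3 cells (400/well) are exposed to compound for 48 or 72 hr at 37 °C, then CellTiter-Glo luminescence is imaged after 10 min at room temperature.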
Potency means the concentration at half of the fitted maximal effect; tags describe the fitted curve by direction and shape.

Structure (SMILES)	Potency
CC(C)NC(=O)N1CC[C@@H](CC(=O)O)[C@@H](CC2=NCCc3cc(F)ccc32)C1	inactive
CCC1(N2CCN(S(=O)(=O)c3cc(F)ccc3C)CC2)CCN(C(=O)NC)C1 (configuration not stated)	inconclusive: 70.8 µM [inhibitor, partial curve, poor fit]
Cc1ccc(CNC(=O)N2CCCCCCNC(=O)[C@@H]3CCCC[C@@H]32)cc1	inactive
O=C(c1ccsc1)N1CC(n2cc(-c3ccccc3)nn2)C1	inconclusive: 70.8 µM [inhibitor, single point]
CS(=O)(=O)N1C[C@H]2CCN(Cc3cc(F)ccc3F)C[C@H]21	inactive
CCOC(=O)C1=C(C)N=C2SC=C(CC(=O)N3CCCCC3)N2C1c1cccc(OC)c1 (configuration not stated)	inactive
CC(C)CC(=O)N1CCc2[nH]nc(C(=O)NCCCc3ccccc3)c2C1	inconclusive: 50.1 µM [inhibitor, partial curve, poor fit]
Cc1cc(F)ccc1-c1[nH]nc2ncc(-c3ccccc3)nc12	inconclusive: 89.1 µM [inhibitor, partial curve]
O=C(C[C@@H]1O[C@H](CNC(=O)Nc2cccc(F)c2)[C@@H](O)[C@H]1O)Nc1ccccc1	inconclusive: 126 µM [inhibitor, partial curve, poor fit]
CN1CC(=O)N(C2CCCC2)Cc2c(NC3CCNCC3)ncnc21	inactive
O=C(N[C@H]1CO[C@H]2[C@@H]1OC[C@H]2OCc1ccccc1)c1ccccc1	inconclusive: 31.6 µM [inhibitor, partial curve, poor fit]
Cn1ncc2c(C(=O)NCC3CC3)cc(-c3ccc(C(F)(F)F)cc3)nc21	inconclusive: 20 µM [inhibitor, full curve, poor fit]
FC(F)(F)c1ccc2c(c1)nc1n2[C@@H](CNC2CCC2)COC1	inactive
O=C(NC1CCCN(c2ccc3nnc(-c4ccccc4)n3n2)C1)c1cccc(Cl)c1 (configuration not stated)	inactive
CCNC(=O)c1ccc2c(c1)OCCN(c1cccc(OC(F)(F)F)c1)C2	inconclusive: 31.6 µM [inhibitor, full curve]
O=C(Nc1cc(F)cc(F)c1)Nc1cccc(-c2ccc(N3CCOCC3)nn2)c1	inconclusive: 31.6 µM [inhibitor, full curve, poor fit]
Cc1cc(C)n(Cc2cccc(C(=O)N3Cc4ccccc4C(O)C3)c2)n1 (configuration not stated)	inconclusive: 79.4 µM [inhibitor, partial curve, poor fit]
Cc1nc(-c2c3n(c(=O)n(Cc4cccc(Br)c4)c2=O)CCCCC3)no1	inconclusive: 70.8 µM [inhibitor, single point]
CC(C)[C@]1(O)CN(C(=O)Cc2ccc(F)cc2F)C[C@H]1C	inactive
Cn1ccc(CN2CCC3(C2)NC(=O)c2ccccc2CO3)c1 (configuration not stated)	inactive
O=C(NCCc1nc(-c2cccnc2)n[nH]1)C1CCC(=O)N(C2CCCC2)C1 (configuration not stated)	inactive

Structure (SMILES)	Potency
O=C(Cc1ccccn1)NC1CCN(c2nccc(Nc3ccccc3F)n2)CC1	inconclusive: 44.7 µM [inhibitor, partial curve, poor fit]
COc1ccccc1Nc1ccnc(N2CCC(C(=O)NCc3cccc(Cl)c3)CC2)n1	inconclusive: 39.8 µM [inhibitor, partial curve, poor fit]
COCCNC(=O)c1coc(COc2ccc3c(c2)C(c2ccc(C)cc2)N(C(=O)C2CC2)CC3)n1 (configuration not stated)	inconclusive: 44.7 µM [inhibitor, partial curve, poor fit]
Cc1cccc(N2CCN(C(=O)c3noc(-c4ccc5c(c4)OCO5)n3)CC2)c1C	inconclusive: 70.8 µM [inhibitor, single point]
O=C(NCc1ccc2c(c1)OCO2)c1nc(-c2ccsc2)c2ccccn12	inactive
CC(C)C(=O)NC1CCN(c2cnn(Cc3ccccc3)c(=O)c2)CC1	inactive
O=C(CC1=C2CCCCC2N(Cc2ccc(F)cc2)C1=O)Nc1ccc(F)cc1 (configuration not stated)	inconclusive: 50.1 µM [inhibitor, partial curve, poor fit]
Cc1ccc(CN2CCC(N3CC4CCCN4C3=O)CC2)cc1 (configuration not stated)	inactive
CCCc1sc(NC(=O)CC[C@H]2NC(=O)c3ccccc3NC2=O)nc1C(=O)OC	inconclusive: 50.1 µM [inhibitor, partial curve, poor fit]
Clc1ccc(CN2CCOC[C@H](Oc3cccnc3)C2)cc1	inconclusive: 63.1 µM [inhibitor, partial curve, poor fit]
COc1ccccc1CNC(=O)CN1CCCc2nc(C)ncc2C1=O	inactive
CC1=C[C@@H](CN)[C@H](C(C)C)C[C@H]1Cc1nc2ccc(C)cc2[nH]1	active: 39.8 µM
Cn1nccc1CN1CCC2(C1)C(=O)N(c1ccccc1)c1ccccc12 (configuration not stated)	inconclusive: 39.8 µM [inhibitor, partial curve, poor fit]
CC(C)C[C@@H](NC(=O)C1=C[C@@H](NC(=O)c2ccco2)[C@@H](O)[C@H](O)C1)C(N)=O	inactive
Cc1ccc(CN2C[C@@H]3C(=O)N(Cc4ccc5c(c4)OCO5)C(=O)[C@@H]3C2)cc1	inconclusive: 39.8 µM [inhibitor, partial curve, poor fit]
COc1nccc(N2CCC(CC(=O)NCc3cccc(C(F)(F)F)c3)CC2)n1	inconclusive: 7.94 µM [inhibitor, full curve]
O=C(NC1CCN(c2cc(-c3ccc(F)cc3)[nH]n2)C1)c1cccc(F)c1 (configuration not stated)	inconclusive: 44.7 µM [inhibitor, partial curve, poor fit]
CCOc1ccc(C(=O)N2CCCC(c3noc(COc4ccccc4)n3)C2)cc1 (configuration not stated)	inconclusive: 50.1 µM [inhibitor, partial curve, poor fit]
Cc1ccc(OCc2nc(C3CCCN3C(=O)c3sc(C)nc3C)no2)cc1 (configuration not stated)	inconclusive: 25.1 µM [inhibitor, partial curve]
Cc1cc2cc(-c3c(C)noc3C)nc(Nc3ccccn3)c2o1	inconclusive: 56.2 µM [inhibitor, partial curve, poor fit]
O=C(Nc1ccccc1)c1nc2c(o1)CCN(Cc1ccc(F)cc1)CC2	inconclusive: 56.2 µM [inhibitor, partial curve, poor fit]

Structure (SMILES)	Potency
CC(C)Cn1c(CN(C)C(C)c2ccon2)cnc1S(=O)(=O)Cc1ccccc1 (configuration not stated)	inconclusive: 44.7 µM [inhibitor, partial curve, poor fit]
COc1ccc(C2=NOC3(CCN(C(=O)c4ccccc4OC)C3)C2)cc1 (configuration not stated)	inconclusive: 56.2 µM [inhibitor, partial curve, poor fit]
CCOC(=O)[C@H]1C[C@]2(CCCCNC2=O)N(C(C)=O)[C@H]1c1ccccc1	inconclusive: 56.2 µM [inhibitor, partial curve, poor fit]
Cc1cc(CN2CCC(CO)(CN3CCCC3)CC2)ccc1F	inconclusive: 89.1 µM [inhibitor, single point]
COc1ccc(CCNC(=O)C2CN(C3CCCCC3)C(=O)N2)cc1 (configuration not stated)	inactive
c1ccc2ncc(CNC[C@H]3Cn4c(-c5ccc6c(c5)OCCO6)cnc4CO3)cc2c1	inconclusive: 31.6 µM [inhibitor, partial curve, poor fit]
Cc1nn2c(c1-c1ccccc1C(C)C)N(C(=O)c1cccc(N(C)C)c1)CCC2	inconclusive: 100 µM [inhibitor, partial curve]
Cc1ccccc1-c1ncc(CN(C)C(C)c2ccon2)s1 (configuration not stated)	inconclusive: 56.2 µM [inhibitor, partial curve, poor fit]
O=C(NCc1cccc(C(F)(F)F)c1)c1ccc2nnc(-c3cc[nH]c3)n2c1	inconclusive: 31.6 µM [inhibitor, full curve]
CC1(C(=O)NCc2ccc(F)cc2)CCCc2cnc(Nc3cccnc3)nc21 (configuration not stated)	inconclusive: 50.1 µM [inhibitor, partial curve]
CCc1cccc(NC(=O)N2CCC(OC3CCN(Cc4ccccc4)CC3)CC2)c1	inconclusive: 39.8 µM [inhibitor, partial curve, poor fit]
CCc1noc(-c2cn(C3CCN(C(=O)c4cccc(F)c4)CC3)nn2)n1	inconclusive: 44.7 µM [inhibitor, partial curve, poor fit]
COc1cccc([S+](=O)([O-])N2CC(Oc3ccc4c(c3)OCO4)C2)c1	inactive
Cc1ccc(-c2ccccc2CN2CCN(C(=O)Nc3ccccc3)CC2)cc1Cl	inconclusive: 35.5 µM [inhibitor, full curve, poor fit]
CCCCCC(=O)N1[C@@H](c2ccco2)[C@@H](C(=O)O)C[C@]12CCCCN(CCOC)C2=O	inconclusive: 56.2 µM [inhibitor, single point]
CN(C)Cc1cc(C[C@@H]2C[C@H](N(Cc3ccco3)Cc3ccco3)C2(C)C)no1	active: 79.4 µM
Cc1nn(C)c(C)c1S(=O)(=O)N1CCCC(C(=O)N2CCCn3nc(-c4ccc(F)cc4)cc3C2)C1 (configuration not stated)	inconclusive: 39.8 µM [inhibitor, partial curve, poor fit]
O=C(NCCCc1ccccc1)C1CCN(C(=O)c2ncn3c2COC(c2ccc(F)cc2)C3)CC1 (configuration not stated)	inactive
O=C1CO[C@H]2CN(Cc3ccccc3F)C[C@H]2N1c1ccccc1	inconclusive: 100 µM [inhibitor, partial curve]
CCOC(=O)[C@@H]1CN(C(=O)C(C)C)[C@H]2c3ccc(OC)cc3O[C@@H]12	inconclusive: 50.1 µM [inhibitor, partial curve, poor fit]
